In experiment [1] the target is T1, p.Ser420Phe CRY2 (CRY2-His-Myc variant) (human) (UniProt Q49AN0).
T1 sequence: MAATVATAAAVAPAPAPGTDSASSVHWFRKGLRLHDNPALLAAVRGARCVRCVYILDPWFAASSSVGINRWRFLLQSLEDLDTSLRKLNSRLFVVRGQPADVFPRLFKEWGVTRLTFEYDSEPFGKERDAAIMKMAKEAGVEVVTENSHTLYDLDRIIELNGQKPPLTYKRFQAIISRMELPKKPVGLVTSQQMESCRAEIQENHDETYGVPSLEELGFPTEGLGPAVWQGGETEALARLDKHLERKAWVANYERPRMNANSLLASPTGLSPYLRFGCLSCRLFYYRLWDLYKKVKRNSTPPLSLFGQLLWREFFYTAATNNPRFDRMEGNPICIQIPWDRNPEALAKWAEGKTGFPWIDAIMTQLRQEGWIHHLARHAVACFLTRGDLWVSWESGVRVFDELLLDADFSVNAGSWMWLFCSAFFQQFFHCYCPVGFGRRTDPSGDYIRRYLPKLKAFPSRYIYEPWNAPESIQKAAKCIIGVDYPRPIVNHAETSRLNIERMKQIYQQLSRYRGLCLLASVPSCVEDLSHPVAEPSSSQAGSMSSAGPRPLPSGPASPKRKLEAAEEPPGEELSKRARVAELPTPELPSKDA
The experiment can be described thus: co-IP; HEK293T co-transfected with WT or variant Cry2-His-Myc, Flag-CLOCK, Flag-Bmal1 and pFLAG-CMV-Per2 (PER2 overexpressed); lysis in 15 mM HEPES, 5 mM NaF, 300 mM NaCl, 1% NP-40; anti-c-Myc affinity gel 2 h at 4 °C; Western blot. Background: Immunoblotting shows a protein as a band on a membrane.

Protein sequences, listed by entry. Tags and fused reporters are not part of them.
UniProt O54943: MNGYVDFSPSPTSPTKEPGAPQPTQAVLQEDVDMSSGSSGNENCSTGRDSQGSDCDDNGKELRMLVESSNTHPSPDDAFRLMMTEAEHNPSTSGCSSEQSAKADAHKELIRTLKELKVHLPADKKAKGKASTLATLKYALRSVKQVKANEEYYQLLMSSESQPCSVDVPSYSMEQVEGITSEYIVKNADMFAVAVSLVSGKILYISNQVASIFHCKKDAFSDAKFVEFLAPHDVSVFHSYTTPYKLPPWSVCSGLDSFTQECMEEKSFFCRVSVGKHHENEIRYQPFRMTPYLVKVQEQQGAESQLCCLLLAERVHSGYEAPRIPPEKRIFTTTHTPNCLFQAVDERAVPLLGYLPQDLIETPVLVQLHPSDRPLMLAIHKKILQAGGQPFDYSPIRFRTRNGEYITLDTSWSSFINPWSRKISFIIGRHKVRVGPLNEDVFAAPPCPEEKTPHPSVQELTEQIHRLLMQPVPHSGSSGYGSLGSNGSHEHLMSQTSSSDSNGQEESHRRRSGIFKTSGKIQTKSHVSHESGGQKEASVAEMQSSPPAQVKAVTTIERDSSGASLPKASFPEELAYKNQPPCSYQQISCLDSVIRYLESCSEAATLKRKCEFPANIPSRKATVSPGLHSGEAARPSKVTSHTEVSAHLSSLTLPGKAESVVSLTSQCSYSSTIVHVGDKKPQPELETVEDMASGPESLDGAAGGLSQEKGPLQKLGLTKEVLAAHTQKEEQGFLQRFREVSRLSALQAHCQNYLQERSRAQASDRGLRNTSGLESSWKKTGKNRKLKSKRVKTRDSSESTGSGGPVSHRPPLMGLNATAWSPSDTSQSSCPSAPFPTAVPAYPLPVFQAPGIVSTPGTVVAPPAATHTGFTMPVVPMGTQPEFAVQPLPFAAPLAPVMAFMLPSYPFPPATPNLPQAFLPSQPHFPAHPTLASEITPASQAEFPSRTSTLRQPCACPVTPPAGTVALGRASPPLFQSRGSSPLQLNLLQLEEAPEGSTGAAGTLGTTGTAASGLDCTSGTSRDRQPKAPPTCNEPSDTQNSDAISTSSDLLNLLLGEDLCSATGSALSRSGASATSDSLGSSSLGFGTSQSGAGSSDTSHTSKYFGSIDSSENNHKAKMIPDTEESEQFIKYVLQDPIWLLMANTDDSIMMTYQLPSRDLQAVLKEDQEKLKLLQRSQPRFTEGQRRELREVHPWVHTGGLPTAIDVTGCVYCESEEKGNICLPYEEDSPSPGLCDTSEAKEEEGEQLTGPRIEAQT
UniProt Q9WTL8: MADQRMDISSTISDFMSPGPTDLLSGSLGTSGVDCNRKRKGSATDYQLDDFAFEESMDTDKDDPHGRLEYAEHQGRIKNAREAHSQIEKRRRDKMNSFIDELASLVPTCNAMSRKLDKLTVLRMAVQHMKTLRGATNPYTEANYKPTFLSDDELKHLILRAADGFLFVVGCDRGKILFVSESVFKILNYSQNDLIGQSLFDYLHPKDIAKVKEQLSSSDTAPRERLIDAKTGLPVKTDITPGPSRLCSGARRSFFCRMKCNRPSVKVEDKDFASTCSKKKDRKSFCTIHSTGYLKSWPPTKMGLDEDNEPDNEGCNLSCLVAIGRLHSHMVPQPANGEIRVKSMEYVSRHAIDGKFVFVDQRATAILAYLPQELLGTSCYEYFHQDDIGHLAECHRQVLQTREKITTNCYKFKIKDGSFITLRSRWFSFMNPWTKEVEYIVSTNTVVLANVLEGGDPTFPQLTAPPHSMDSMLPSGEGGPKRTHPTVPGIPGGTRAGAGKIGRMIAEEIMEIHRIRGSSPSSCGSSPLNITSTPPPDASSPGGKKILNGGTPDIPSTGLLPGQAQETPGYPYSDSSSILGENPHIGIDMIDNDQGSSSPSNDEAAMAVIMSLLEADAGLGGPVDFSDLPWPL

Experiment [2] concerns the target T2, wild-type CRY2 (CRY2-His-Myc) (human) (UniProt Q49AN0).
T2 sequence: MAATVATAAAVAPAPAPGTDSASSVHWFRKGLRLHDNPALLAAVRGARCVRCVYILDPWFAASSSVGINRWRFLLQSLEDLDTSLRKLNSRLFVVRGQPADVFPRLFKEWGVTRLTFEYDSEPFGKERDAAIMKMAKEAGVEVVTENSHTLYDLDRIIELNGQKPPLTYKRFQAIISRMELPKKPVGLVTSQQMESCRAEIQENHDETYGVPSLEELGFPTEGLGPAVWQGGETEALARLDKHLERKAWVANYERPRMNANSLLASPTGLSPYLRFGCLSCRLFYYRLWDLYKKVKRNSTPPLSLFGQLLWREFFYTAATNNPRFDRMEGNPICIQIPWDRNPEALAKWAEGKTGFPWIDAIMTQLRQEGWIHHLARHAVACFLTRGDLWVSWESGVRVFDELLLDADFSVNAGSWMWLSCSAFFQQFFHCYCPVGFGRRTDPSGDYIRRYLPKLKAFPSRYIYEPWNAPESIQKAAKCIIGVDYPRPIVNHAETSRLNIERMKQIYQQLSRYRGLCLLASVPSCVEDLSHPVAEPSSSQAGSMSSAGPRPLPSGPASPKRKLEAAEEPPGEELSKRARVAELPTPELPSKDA
Described as above.

For experiment [3], the target named is T1, p.Ser420Phe CRY2 (CRY2-His-Myc variant) (human). The experiment can be described thus: co-IP; pairwise: HEK293T with WT or variant Cry2-His-Myc and either Flag-PER2 or Flag-CLOCK alone; MYC resin; Western blot.
For experiment [4], the target named is T2, wild-type CRY2 (CRY2-His-Myc) (human). The description is as above.
The target is the same in experiment [5]. The experiment can be described thus: co-IP; HEK293T co-transfected with WT or variant Cry2-His-Myc, Flag-CLOCK and Flag-Bmal1, without PER2 overexpression; lysis in 15 mM HEPES, 5 mM NaF, 300 mM NaCl, 1% NP-40; anti-c-Myc affinity gel 2 h at 4 °C; Western blot.
Experiment [6] deals with T1, p.Ser420Phe CRY2 (CRY2-His-Myc variant) (human). As to the kind of experiment: co-IP; HEK293T transfected with WT or variant Cry2-His-Myc, pBind-FBXL3-Gal4 and pFLAG-CMV-FBXL21; lysis in 15 mM HEPES, 5 mM NaF, 300 mM NaCl, 1% NP-40; anti-c-Myc affinity gel 2 h at 4 °C; Western blot.
Experiment [7] has as its target T2, wild-type CRY2 (CRY2-His-Myc) (human). Described as above.
Experiment [8] addresses T1, p.Ser420Phe CRY2 (CRY2-His-Myc variant) (human). As to the kind of experiment: co-IP; HEK293T co-transfected with WT or variant Cry2-His-Myc, Flag-CLOCK and Flag-Bmal1, without PER2 overexpression; lysis in 15 mM HEPES, 5 mM NaF, 300 mM NaCl, 1% NP-40; anti-c-Myc affinity gel 2 h at 4 °C; Western blot.

Results are given in words; binding and its absence hold for the method and conditions named. Binding seen in cells or lysates may run through a third protein. Some entries that bind do so weakly or less than the wild type. Tags and fused reporters may be left off the sequences shown.

As for FLAG-PER2 (from UniProt O54943 1-1257), the binding entry in experiment [1], in experiment [2], in experiment [3] and in experiment [4] was “binds” in each case.
On to FLAG-BMAL1 (from UniProt Q9WTL8 1-632), for which the binding result in experiment [5], in experiment [1] and in experiment [2] was “binds” in each case.

B1: FLAG-FBXL21 (protein, UniProt Q9UKT6 1-434)
chain: MKRNSLSVENKIVQLSGAAKQPKVGFYSSLNQTHTHTVLLDWGSLPHHVVLQIFQYLPLLDRACASSVCRRWNEVFHISDLWRKFEFELNQSATSSFKSTHPDLIQQIIKKHFAHLQYVSFKVDSSAESAEAACDILSQLVNCSIQTLGLISTAKPSFMNVSESHFVSALTVVFINSKSLSSIKIEDTPVDDPSLKILVANNSDTLRLPKMSSCPHVSSDGILCVADRCQGLRELALNYYILTDELFLALSSETHVNLEHLRIDVVSENPGQIKFHAVKKHSWDALIKHSPRVNVVMHFFLYEEEFETFFKEETPVTHLYFGRSVSKVVLGRVGLNCPRLIELVVCANDLQPLDNELICIAEHCTNLTALGLSKCEVSCSAFIRFVRLCERRLTQLSVMEEVLIPDEDYSLDEIHTEVSKYLGRVWFPDVMPLW
B1: the results for the binding entry in experiment [6] and in experiment [7] were “no binding” and “binds”, respectively.

B2: FLAG-CLOCK (protein, UniProt O15516 1-846)
chain: MLFTVSCSKMSSIVDRDDSSIFDGLVEEDDKDKAKRVSRNKSEKKRRDQFNVLIKELGSMLPGNARKMDKSTVLQKSIDFLRKHKEITAQSDASEIRQDWKPTFLSNEEFTQLMLEALDGFFLAIMTDGSIIYVSESVTSLLEHLPSDLVDQSIFNFIPEGEHSEVYKILSTHLLESDSLTPEYLKSKNQLEFCCHMLRGTIDPKEPSTYEYVKFIGNFKSLNSVSSSAHNGFEGTIQRTHRPSYEDRVCFVATVRLATPQFIKEMCTVEEPNEEFTSRHSLEWKFLFLDHRAPPIIGYLPFEVLGTSGYDYYHVDDLENLAKCHEHLMQYGKGKSCYYRFLTKGQQWIWLQTHYYITYHQWNSRPEFIVCTHTVVSYAEVRAERRRELGIEESLPETAADKSQDSGSDNRINTVSLKEALERFDHSPTPSASSRSSRKSSHTAVSDPSSTPTKIPTDTSTPPRQHLPAHEKMVQRRSSFSSQSINSQSVGSSLTQPVMSQATNLPIPQGMSQFQFSAQLGAMQHLKDQLEQRTRMIEANIHRQQEELRKIQEQLQMVHGQGLQMFLQQSNPGLNFGSVQLSSGNSSNIQQLAPINMQGQVVPTNQIQSGMNTGHIGTTQHMIQQQTLQSTSTQSQQNVLSGHSQQTSLPSQTQSTLTAPLYNTMVISQPAAGSMVQIPSSMPQNSTQSAAVTTFTQDRQIRFSQGQQLVTKLVTAPVACGAVMVPSTMLMGQVVTAYPTFATQQQQSQTLSVTQQQQQQSSQEQQLTSVQQPSQAQLTQPPQQFLQTSRLLHGNPSTQLILSAAFPLQQSTFPQSHHQQHQSQQQQQLSRHRTDSLPDPSKVQPQ
With B2, the binding result in experiment [8], in experiment [5], in experiment [1], in experiment [2], in experiment [3] and in experiment [4] was “binds” throughout.

B3: FBXL3-Gal4 (protein, UniProt Q9UKT7 1-428)
chain: MKRGGRDSDRNSSEEGTAEKSKKLRTTNEHSQTCDWGNLLQDIILQVFKYLPLLDRAHASQVCRNWNQVFHMPDLWRCFEFELNQPATSYLKATHPELIKQIIKRHSNHLQYVSFKVDSSKESAEAACDILSQLVNCSLKTLGLISTARPSFMDLPKSHFISALTVVFVNSKSLSSLKIDDTPVDDPSLKVLVANNSDTLKLLKMSSCPHVSPAGILCVADQCHGLRELALNYHLLSDELLLALSSEKHVRLEHLRIDVVSENPGQTHFHTIQKSSWDAFIRHSPKVNLVMYFFLYEEEFDPFFRYEIPATHLYFGRSVSKDVLGRVGMTCPRLVELVVCANGLRPLDEELIRIAERCKNLSAIGLGECEVSCSAFVEFVKMCGGRLSQLSIMEEVLIPDQKYSLEQIHWEVSKHLGRVWFPDMMPTW
As to B3, the binding result in experiment [6] is recorded as “no binding”; in experiment [7], “binds”.
